Data as given in publication PMC12820563.
Some of the results follow. The list includes weakly bound sequences.

molecular target: T1, MBP-FoxP3dN (UniProt Q99JB6); assay: PD-seq (MBP pull-down with sequencing); settings: 20 mM Tris-HCl pH 7.5, 100 mM NaCl, 1.5 mM MgCl2, 0.4 uM protein, 0.1 uM dsDNA library, 30 min, room temperature, amylose pull-down; high values mean tight binding; double strand, one strand shown
T1 sequence: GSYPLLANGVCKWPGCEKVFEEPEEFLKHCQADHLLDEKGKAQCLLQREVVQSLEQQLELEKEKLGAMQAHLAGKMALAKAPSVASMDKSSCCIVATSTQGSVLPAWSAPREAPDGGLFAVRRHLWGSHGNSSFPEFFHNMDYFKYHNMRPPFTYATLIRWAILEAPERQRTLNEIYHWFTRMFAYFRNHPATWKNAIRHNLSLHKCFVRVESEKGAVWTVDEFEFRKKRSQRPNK

Row | Sequence | binding signal (RPM ratio (pull-down/input))
1 | GATGATTGTTCTCCCAGCTGATGAATTCCATCTGTCGAGTAAACAAATTTTCCTAATCTTTCTGTTCAAGCGCCATCTAC | 0.414
2 | GATGATTGTTCTCCCAGCTGATGAATTACTTTTGTCGAGTAAACAAATTTTCCTAATCTTTCTGTTCAAGCGCCATCTAC | 0.703
3 | GATGATTGTTCTCCCAGCTGATGAATTGTTCCCTTCGAGTAAACAAATTTTCCTAATCTTTCTGTTCAAGCGCCATCTAC | 0.416
4 | GATGATTGTTCTCCCAGCTGATGAATTGCACCACTCGAGTAAACAAATTTTCCTAATCTTTCTGTTCAAGCGCCATCTAC | 1.03
5 | GATGATTGTTCTCCCAGCTGATGAATTGGTGGGATCGAGTAAACAAATTTTCCTAATCTTTCTGTTCAAGCGCCATCTAC | 0.401
6 | GATGATTGTTCTCCCAGCTGATGAATTCGATACGTCGAGTAAACAAATTTTCCTAATCTTTCTGTTCAAGCGCCATCTAC | 0.656
7 | GATGATTGTTCTCCCAGCTGATGAATTCAATACCTCGAGTAAACAAATTTTCCTAATCTTTCTGTTCAAGCGCCATCTAC | 0.429
8 | GATGATTGTTCTCCCAGCTGATGAATTTGTGCGTTCGAGTAAACAAATTTTCCTAATCTTTCTGTTCAAGCGCCATCTAC | 3.7
9 | GATGATTGTTCTCCCAGCTGATGAATTACTGGCGTCGAGTAAACAAATTTTCCTAATCTTTCTGTTCAAGCGCCATCTAC | 0.476
10 | GATGATTGTTCTCCCAGCTGATGAATTGCCCTACTCGAGTAAACAAATTTTCCTAATCTTTCTGTTCAAGCGCCATCTAC | 0.438
11 | GATGATTGTTCTCCCAGCTGATGAATTTCAAGTTTCGAGTAAACAAATTTTCCTAATCTTTCTGTTCAAGCGCCATCTAC | 0.283
12 | GATGATTGTTCTCCCAGCTGATGAATTCAAATGCTCGAGTAAACAAATTTTCCTAATCTTTCTGTTCAAGCGCCATCTAC | 0.736
13 | GATGATTGTTCTCCCAGCTGATGAATTAGCCCTATCGAGTAAACAAATTTTCCTAATCTTTCTGTTCAAGCGCCATCTAC | 0.35
14 | GATGATTGTTCTCCCAGCTGATGAATTAAGTTCATCGAGTAAACAAATTTTCCTAATCTTTCTGTTCAAGCGCCATCTAC | 0.538
15 | GATGATTGTTCTCCCAGCTGATGAATTTGGCATGTCGAGTAAACAAATTTTCCTAATCTTTCTGTTCAAGCGCCATCTAC | 4.91
16 | GATGATTGTTCTCCCAGCTGATGAATTATTTGTGTCGAGTAAACAAATTTTCCTAATCTTTCTGTTCAAGCGCCATCTAC | 2.76
17 | GATGATTGTTCTCCCAGCTGATGAATTGCGCTGTTCGAGTAAACAAATTTTCCTAATCTTTCTGTTCAAGCGCCATCTAC | 1.63
18 | GATGATTGTTCTCCCAGCTGATGAATTTATTCGATCGAGTAAACAAATTTTCCTAATCTTTCTGTTCAAGCGCCATCTAC | 0.329
19 | GATGATTGTTCTCCCAGCTGATGAATTCGGATACTCGAGTAAACAAATTTTCCTAATCTTTCTGTTCAAGCGCCATCTAC | 0.758
20 | GATGATTGTTCTCCCAGCTGATGAATTGGGAGTATCGAGTAAACAAATTTTCCTAATCTTTCTGTTCAAGCGCCATCTAC | 0.577

Row | Sequence | binding signal (RPM ratio (pull-down/input))
21 | GATGATTGTTCTCCCAGCTGATGAATTACAGATGTCGAGTAAACAAATTTTCCTAATCTTTCTGTTCAAGCGCCATCTAC | 0.512
22 | GATGATTGTTCTCCCAGCTGATGAATTACTGCCATCGAGTAAACAAATTTTCCTAATCTTTCTGTTCAAGCGCCATCTAC | 1.87
23 | GATGATTGTTCTCCCAGCTGATGAATTTCTCTTCTCGAGTAAACAAATTTTCCTAATCTTTCTGTTCAAGCGCCATCTAC | 0.263
24 | GATGATTGTTCTCCCAGCTGATGAATTTAAATCGTCGAGTAAACAAATTTTCCTAATCTTTCTGTTCAAGCGCCATCTAC | 0.398
25 | GATGATTGTTCTCCCAGCTGATGAATTAGTGGTTTCGAGTAAACAAATTTTCCTAATCTTTCTGTTCAAGCGCCATCTAC | 2.35
26 | GATGATTGTTCTCCCAGCTGATGAATTGCTTTGCTCGAGTAAACAAATTTTCCTAATCTTTCTGTTCAAGCGCCATCTAC | 1.22
27 | GATGATTGTTCTCCCAGCTGATGAATTACCACGGTCGAGTAAACAAATTTTCCTAATCTTTCTGTTCAAGCGCCATCTAC | 0.257
28 | GATGATTGTTCTCCCAGCTGATGAATTCCGTACCTCGAGTAAACAAATTTTCCTAATCTTTCTGTTCAAGCGCCATCTAC | 0.892
29 | GATGATTGTTCTCCCAGCTGATGAATTTAAGTAATCGAGTAAACAAATTTTCCTAATCTTTCTGTTCAAGCGCCATCTAC | 0.624
30 | GATGATTGTTCTCCCAGCTGATGAATTTGGGTAATCGAGTAAACAAATTTTCCTAATCTTTCTGTTCAAGCGCCATCTAC | 0.706
31 | GATGATTGTTCTCCCAGCTGATGAATTTTACGTCTCGAGTAAACAAATTTTCCTAATCTTTCTGTTCAAGCGCCATCTAC | 0.465
32 | GATGATTGTTCTCCCAGCTGATGAATTTCCCCTATCGAGTAAACAAATTTTCCTAATCTTTCTGTTCAAGCGCCATCTAC | 0.274
33 | GATGATTGTTCTCCCAGCTGATGAATTACAAGGATCGAGTAAACAAATTTTCCTAATCTTTCTGTTCAAGCGCCATCTAC | 0.29
34 | GATGATTGTTCTCCCAGCTGATGAATTCATCTTGTCGAGTAAACAAATTTTCCTAATCTTTCTGTTCAAGCGCCATCTAC | 0.398
35 | GATGATTGTTCTCCCAGCTGATGAATTTTCTGACTCGAGTAAACAAATTTTCCTAATCTTTCTGTTCAAGCGCCATCTAC | 0.236
36 | GATGATTGTTCTCCCAGCTGATGAATTCTCACAATCGAGTAAACAAATTTTCCTAATCTTTCTGTTCAAGCGCCATCTAC | 0.373
37 | GATGATTGTTCTCCCAGCTGATGAATTCTTCTACTCGAGTAAACAAATTTTCCTAATCTTTCTGTTCAAGCGCCATCTAC | 0.277
38 | GATGATTGTTCTCCCAGCTGATGAATTTTGGATATCGAGTAAACAAATTTTCCTAATCTTTCTGTTCAAGCGCCATCTAC | 0.75
39 | GATGATTGTTCTCCCAGCTGATGAATTCTAGAGGTCGAGTAAACAAATTTTCCTAATCTTTCTGTTCAAGCGCCATCTAC | 0.252
40 | GATGATTGTTCTCCCAGCTGATGAATTAACTTCATCGAGTAAACAAATTTTCCTAATCTTTCTGTTCAAGCGCCATCTAC | 0.326
